Measured values: PubChem BioAssay (NCATS)
This list was built around the results that the source calls inconclusive (neither active nor inactive); the mix of calls is not that of the screen. Potencies of inconclusive entries are left out as doubtful fits. Active and inactive are the calls of the source. Calls follow the shape of the dose curve; as a rule, active = well fitted inhibition curve with a large enough effect; inconclusive = small, poorly fitted or top-dose-only effect; inactive = no such curve, though single readings can be large or run the other way. Positions of bridges follow the written chain, without caps; N, C: chain ends. Non-standard residues stand in square brackets, D forms with d. Residues, ends and D or L forms follow the SMILES beside them. ξ: configuration not given here. *: point of attachment. Octanoyl(6-Me) = CCC(C)CCCCC(=O)*; ξThr(3R) = C[C@@H](O)C(N)C(=O)O; dDab = NCC[C@@H](N)C(=O)O; Dab = NCC[C@H](N)C(=O)O

Assay: BET inhibitor-based combinations targeting novel dependencies in MECOM-rearranged (r) AML: MV-4-11 cell line (AID 2202233); also: nearly all actives have a fitted effect of over 45% in size
Conditions: MV-4-11 AML viability, CellTiter-Glo luminescence, 48 h; viability, % of control: at 46 µM (top of the series) unless noted
Source text: Ecotropic viral insertion site 1 (EVI1) is located on chromosome 3q26.2 as part of the MECOM (MDS and EVI1 complex) locus. Under normal hematopoiesis, EVI1 is a regulator of hematopoietic stem cell maintenance and self-renewal and EVI1 levels decrease as the cells differentiate. In approximately 5-10% of de novo acute myeloid leukemia (AML) EVI1 is aberrantly expressed, including Chromosomal inv(3)(q21;q26.2) or t(3;3)(q21;q26.2) alterations (MECOM-r) that account for about 50% of AML with EVI1 overexpression 31. AMLs with high levels of EVI1 have a poor prognosis and an overall survival time averaging between 10-14 months. EVI1 overexpression confers resistance in leukemia cells, highlighting the need to develop new targeted therapies for EVI1 overexpressing AMLs. Here, we performed an unbiased chemical drug screening by evaluating the single agent activity of a collection of 2,480 oncology-focused, approved and investigational drugs (NCATS Mechanism Interrogation Plates, MIPE v5.0) against a panel of seven AML cell lines. These included four MECOM-r cell-lines (AML-191, AML-194, UCSD-AML1 and HNT-34) and three non-MECOM-r AMLs (MV4-11, OCI-AML3 and SET-2). Exploiting the mechanistic redundancy built in the library, we identified target-level sensitivities in MECOM-r AML cells and relative activity as compared to other AML subtypes.
A collection of 2480 mechanistically annotated dugs (MIPE v5.0) was used to screen four 3q26.2 rearranged AML cell lines and three non-3q26.2 rearranged AML cell lines. This library purposely exploits redundancy by including multiple inhibitors of key onco-targets, while simultaneously encompassing mechanistic diversity, targeting more than 800 distinct mechanisms of action. Briefly, cells were seeded in 5 uL of growth media using a Multidrop Combi dispenser into 1536 well white polystyrene tissue culture treated plates (Corning) at a density of 500cells/well. For each cell-line, for each of the 2480 drugs in MIPE v5.0 library, an 11-point dose curve was generated via a 1536 pin-tool. Plates were incubated for 48 hr at standard incubator conditions, covered by a stainless steel gasketed lid to prevent evaporation. Cell viability was determined by luminescence based, Cell Titer Glo assay (Promega). In detail, 3 uL of Cell Titer Glo were added to each well and plates were incubated at room temperature for 15 min with a stainless-steel lid in place. Luminescence readings were taken using a Viewlux (PerkinElmer) with a 2 s exposure time per plate. Compound dose-response curves were normalized to DMSO and empty well controls on each plate. Quantitative drug activity data from dose-response curves was determined utilizing area Under the Curve (AUC) and Z-transformed AUC (Z-AUC, a mean-centering transformation applied to each individual cell-line screened).
Potency is read from the fitted curve at half-maximal effect; tags tell the direction and shape of the fitted curve.

Compound | Potency | viability, % of control
C[C@@H](c1ccc2nccn2c1)n1nnc2ncc(-c3cnn(C)c3)nc21 | inconclusive [inhibitor, partial curve, poor fit] | 
CNC(=O)c1c(-c2ccc(F)cc2)oc2cc(N(CCO)S(C)(=O)=O)c(C3CC3)cc12 |  | inactive: 113%
CC(C)(C)c1nc(-c2cccc(NS(=O)(=O)c3c(F)cccc3F)c2F)c(-c2ccnc(N)n2)s1 | inconclusive [inhibitor, full curve] | 
O=C(NC[C@H](O)CN1CCc2ccccc2C1)c1cc(NC2COC2)ncn1 | inconclusive [inhibitor, partial curve, poor fit] | 
N#Cc1cc(NC(=O)Nc2nnc(-c3ccncc3)s2)ccc1-c1cn[nH]c1 |  | inactive: 112%
C=C1[C@H](CO)[C@@H](O)C[C@@H]1n1cnc2c(=O)[nH]c(N)nc21 | inconclusive [inhibitor, partial curve, poor fit] | 
O=C1CC[C@H](N2Cc3c(OCc4ccc(CN5CCOCC5)cc4)cccc3C2=O)C(=O)N1 | inconclusive [inhibitor, partial curve, poor fit] | 
CS[C@H]1SC[C@@H]2C(=O)N(C)[C@H](C(C)C)C(=O)OC[C@H](NC(=O)c3cnc4ccccc4n3)C(=O)N[C@H](C)C(=O)N(C)[C@H]1C(=O)N(C)[C@H](C(C)C)C(=O)OC[C@H](NC(=O)c1cnc3ccccc3n1)C(=O)N[C@H](C)C(=O)N2C | inconclusive [inhibitor, full curve] | 
O=C(NCC1CCCCN1)c1cc(OCC(F)(F)F)ccc1OCC(F)(F)F (stereo not given) |  | inactive: 106%
NC(=O)c1cc(F)cc2c1C(=O)N(C1CCN(C3CCC(F)(F)CC3)CC1)C2 | inconclusive [inhibitor, partial curve] | 
O=C1NC(=O)/C(=C/c2ccc(-c3ccc(F)cc3O)o2)S1 | inconclusive [inhibitor, partial curve] | 
C[C@H](NC(=O)Cc1cc(F)cc(F)c1)C(=O)N[C@@H]1C(=O)N(C)c2ccccc2-c2ccccc21 |  | inactive: 105%
Clc1ccc2nsnc2c1NC1=NCCN1 | inconclusive [inhibitor, partial curve, poor fit] | 
Cc1ccc(-n2nc(C(C)(C)C)cc2NC(=O)NCc2cc(F)ccc2Oc2ccc3c(cnn3CCO)c2)cc1 | active: 18.6 µM | 
Ac-PHSCN-NH2 |  | inactive: 116%
CO[C@H]1/C=C/O[C@@]2(C)Oc3c(C)c(O)c4c(O)c(c5c(c4c3C2=O)=NC2(CCN(CC(C)C)CC2)N=5)NC(=O)/C(C)=C/C=C/[C@H](C)[C@H](O)[C@@H](C)[C@@H](O)[C@@H](C)[C@H](OC(C)=O)[C@@H]1C | inconclusive [inhibitor, partial curve] | 
Cc1c(O)cccc1C(=O)NC(CSc1ccccc1)C(O)CN1CC2CCCCC2CC1C(=O)NC(C)(C)C (stereo not given) | inconclusive [inhibitor, single point] | 
CNC(=O)c1cccc2cc(Oc3ccnc4cc(OCC5(N)CC5)c(OC)cc34)ccc12 | inconclusive [inhibitor, partial curve, poor fit] | 
CN[C@@H](C)C(=O)N[C@@H]1C(=O)N(Cc2c(C)ccc3ccccc23)c2ccc(C#N)cc2N(C(C)=O)[C@H]1C | inconclusive [inhibitor, full curve, poor fit] | 
CN[C@@H](C)C(=O)N[C@H]1CCCC[C@H]2CC[C@@H](C(=O)N[C@@H](c3ccccc3)c3cn(CCCCc4ccc(CCCCn5cc([C@@H](NC(=O)[C@@H]6CC[C@@H]7CCCC[C@H](NC(=O)[C@H](C)NC)C(=O)N76)c6ccccc6)nn5)cc4)nn3)N2C1=O | inconclusive [inhibitor, partial curve, poor fit] | 

Compound | Potency | viability, % of control
Cc1ccc(S(=O)(=O)Nc2cc(Cl)ccc2C(=O)Nc2nc(-c3ccccc3)cs2)cc1 | inconclusive [inhibitor, full curve, poor fit] | 
O=[N+]([O-])c1cn2c(n1)OC[C@@H](OCc1ccc(OC(F)(F)F)cc1)C2 |  | inactive: 96.2%
COc1cc2ncn(-c3cc(OCc4ccccc4S(C)(=O)=O)c(C#N)s3)c2cc1OC |  | inactive: 58%
CO[C@@H]1C(N(C)C(=O)c2ccccc2)C[C@H]2O[C@]1(C)n1c3ccccc3c3c4c(c5c6ccccc6n2c5c31)C(=O)NC4=O (stereo not given in full) | inconclusive [inhibitor, full curve] | 
Cn1c(=O)c(Oc2ccc(F)cc2F)cc2cnc(NC3CCOCC3)nc21 | inconclusive [inhibitor, partial curve, poor fit] | 
NC1=N[C@H]2[C@H](CS[C@H]2CCCCC(=O)O)N1 |  | inactive: 49% [at 15.6 µM]
CN(C)N(C)C(=O)[C@@]1(Cc2ccccc2)CCCN(C(=O)[C@@H](Cc2c[nH]c3ccccc23)NC(=O)C(C)(C)N)C1 | inconclusive [inhibitor, single point] | 
Nc1nc(N)c2nc(-c3cccc(Cl)c3)c(N)nc2n1 | inconclusive [inhibitor, full curve, poor fit] | 
COCC(=O)NC/C=C/c1ccc2ncnc(Nc3ccc(Oc4ccc(C)nc4)c(C)c3)c2c1 | inconclusive [inhibitor, partial curve] | 
COc1ccnc(CS(=O)c2nc3ccc(OC(F)F)cc3[nH]2)c1OC (stereo not given) | inconclusive [inhibitor, partial curve] | 
Cn1c(Nc2ccc(C(F)(F)F)cc2)nc2cc(Oc3ccnc(-c4ncc(C(F)(F)F)[nH]4)c3)ccc21 | inconclusive [inhibitor, partial curve, poor fit] | 
CCS(=O)(=O)N1CCC([C@@H](C)n2c(C)c(C(=O)NCc3c(OC)cc(C)[nH]c3=O)c3ccccc32)CC1 | inconclusive [inhibitor, partial curve, poor fit] | 
Cn1cc(-c2cnc3ccc4ccc(CS(=O)(=O)NCc5ccccn5)cc4c(=O)c3c2)cn1 | inconclusive [inhibitor, partial curve] | 
Cc1cc(C)c(S(=O)(=O)N(CCc2cccc(Br)c2)Cc2ccc(-c3cccc(S(C)(=O)=O)c3)cc2)c(C)c1 | inconclusive [inhibitor] | 
C[C@@H]1O[C@@H](O[C@@H]2\C=C/C=C\C=C/C=C\C[C@H](C)OC(=O)/C=C\[C@H]3O[C@@H]3C[C@H](O)C[C@]3(O)C[C@@H](O)[C@@H](C(=O)O)[C@H](C2)O3)[C@H](O)[C@H](N)[C@@H]1O |  | inactive: 116%
O=C(Cc1ccccc1)Nc1nnc(CCSCCc2nnc(NC(=O)Cc3ccccc3)s2)s1 | inconclusive [inhibitor, full curve, poor fit] | 
Nc1nccn2c(C3CCC(C(=O)O)CC3)nc(-c3cc4cccc(Cl)c4[nH]3)c12 (stereo not given) | active: 2.35 µM | 
Nc1nc2c(ncn2COC(CO)CO)c(=O)[nH]1 |  | inactive: 100%
CCC(C)CCCCC(=O)N[C@@H](CCN)C(=O)NC(C(=O)N[C@H](CCN)C(=O)N[C@@H]1CCNC(=O)C([C@@H](C)O)NC(=O)[C@@H](CCN)NC(=O)[C@@H](CCN)NC(=O)[C@@H](CC(C)C)NC(=O)[C@H](Cc2ccccc2)NC(=O)[C@H](CCN)NC1=O)[C@@H](C)O (stereo partly drawn) ({Octanoyl(6-Me)}-[Dab][ξThr(3R)][dDab][dDab][Dab]F[dL][dDab][dDab][ξThr(3R)]; lactam 4-C) |  | inactive: 129%
CCc1cc(/C(C)=N/OCc2ccc(C3CCCCC3)c(C(F)(F)F)c2)ccc1CN1CC(C(=O)O)C1 | active: 8.33 µM | 
